# PubChem BioAssay (NCATS)
# Values joined by “and” are separate entries in the source; they are usually repeats but may differ in a detail not shown here. Equal entries are not always repeated. The shares of active, inactive and inconclusive entries below differ from those in the screen. Potencies of inconclusive entries are doubtful fits and often do not repeat. Where a structure was tested more than once in an assay, its records may differ in their call. Active and inactive are the calls of the source. The call rests on the fitted dose curve; in most records, active means well fitted curve in the direction sought with a large enough effect; inconclusive means small, poorly fitted or top-dose-only effect, or another doubt; inactive means no such curve, though single readings can be large; an effect the other way counts as inactive or inconclusive.
# Columns and labels:
# MKL-2 = assay: qHTS assay to identify novel small-molecules to repurpose for Merkel cell carcinoma treatment (AID 1296009); details: MCC and control cell lines, CellTiter-Glo viability, 72 h; activity change, negative = cytotoxicity: at 46 µM (top of the series); further: nearly all actives have a fitted effect of over 60% in size
# In short: (§1)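 qHTS format: cells treated with library compounds in DMSO across 8 (NPC) or 11 (MIPE) concentrations. Readout after 72 hr at 37 degree celsius was CellTiter-Glo luminescence.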
# C33A = assay: Primary qHTS to identify gynecologic anti-cancer compounds using libraries of approved drugs and bioactive compounds (AID 1345084); details: Gynecologic cancer cell panel viability, ATPlite luminescence, 48 h; series mostly up to 57.5 µM; further: nearly all actives have a fitted effect of over 55% in size
# In short: (§2)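 In this quantitative HTS, cell killing is estimated from loss of ATP-dependent luciferase light. Cells see five compound concentrations over a 48 h exposure.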
# UISO = assay: qHTS assay to identify novel small-molecules to repurpose for Merkel cell carcinoma treatment (AID 1296009); details: MCC and control cell lines, CellTiter-Glo viability, 72 h; series mostly up to 46 µM; further: nearly all actives have a fitted effect of over 60% in size
# In short: as §1
# WaGa = assay: as above; details: MCC and control cell lines, CellTiter-Glo viability, 72 h; series mostly up to 46 µM
# In short: as §1
# CAOV3 = assay: Primary qHTS to identify gynecologic anti-cancer compounds using libraries of approved drugs and bioactive compounds (AID 1345084); details: Gynecologic cancer cell panel viability, ATPlite luminescence, 48 h; series mostly up to 57.5 µM; further: nearly all actives have a fitted effect of over 55% in size
# In short: as §2
# CASKI = assay: as above; details: Gynecologic cancer cell panel viability, ATPlite luminescence, 48 h; series mostly up to 57.5 µM
# In short: as §2
# Es-2 = assay: as above; details: Gynecologic cancer cell panel viability, ATPlite luminescence, 48 h; series mostly up to 57.5 µM
# In short: as §2
# HeLa = assay: as above; details: Gynecologic cancer cell panel viability, ATPlite luminescence, 48 h; series mostly up to 57.5 µM
# In short: as §2
# On the % scale 0 is the no-effect control and ±100 the full control effect; potency means the concentration at half of the fitted maximal effect; tags describe the fitted curve by direction and shape.
smiles,measurement,setting,value
N[C@H]1CN(c2c(F)cc3c(=O)c(C(=O)O)cn(C4C[C@@H]4F)c3c2Cl)CC12CC2 (stereo not given in full),Potency,MKL-2,inactive
same,Potency,C33A,"inconclusive: 22.4 µM [rising, partial curve, poor fit]"
COCCOc1nc(-c2ccc(Cl)c(Cl)c2)n(-c2ccc(NC(=O)CCl)cc2)n1,Potency,MKL-2,"inconclusive: 11.8 µM [inhibitor, partial curve]"
same,Potency,UISO,"inconclusive: 4.69 µM [inhibitor, partial curve]"
same,Potency,WaGa,"inconclusive: 16.6 µM [inhibitor, partial curve]"
same,Potency,C33A,active: 20 µM
same,Potency,CAOV3,active: 28.2 µM
same,Potency,CASKI,"inconclusive: 31.6 µM [cytotoxic, single point]"
same,Potency,Es-2,active: 11.2 µM
CC=CC(=O)N(CC)c1ccccc1C,Potency,MKL-2,inactive
same,Potency,WaGa,"inconclusive: 29.6 µM [inhibitor, single point]"
CC[C@H](C=C[C@@H](C)[C@H]1CC[C@H]2[C@@H]3CC=C4C[C@@H](O)CC[C@]4(C)[C@@H]3CC[C@]12C)C(C)C,Potency,MKL-2,inactive
same,Potency,WaGa,inactive
CN[C@@H](C)[C@H]1[C@H](O)C[C@@]2(C)[C@@H]3CC[C@H]4C(C)(C)[C@@H](NC)CC[C@@]45C[C@@]35CC[C@]12C,Potency,MKL-2,inactive
same,"activity change, negative = cytotoxicity",CAOV3,inactive: 7.65% [at 11.6 µM]
C[C@H]1c2cccc(O)c2C(O)=C2C(=O)[C@]3(O)C(O)=C(C(N)=O)C(=O)[C@@H](N(C)C)[C@@H]3[C@@H](O)[C@@H]21,Potency,MKL-2,"inconclusive: 29.9 µM [inhibitor, single point]"
same,Potency,UISO,"inconclusive: 29.9 µM [inhibitor, single point] and inconclusive: 29.6 µM [inhibitor, single point]"
same,Potency,WaGa,"inconclusive: 29.9 µM [inhibitor, single point]"
same,Potency,CASKI,"inconclusive: 25.1 µM [rising, partial curve, poor fit]"
CS(=O)(=O)OCCCCOS(C)(=O)=O,Potency,MKL-2,"inconclusive: 33.5 µM [inhibitor, single point]"
same,Potency,HeLa,inactive
COc1ccc(C(=O)CC(=O)c2ccc(C(C)(C)C)cc2)cc1,Potency,MKL-2,"inconclusive: 11.9 µM [inhibitor, partial curve, poor fit]"
same,Potency,UISO,active: 11.8 µM
same,Potency,WaGa,"inactive and inconclusive: 296 nM [inhibitor, full curve]"
same,Potency,HeLa,inactive
COc1ccc2c(Oc3ccc(NC(=O)c4c(C)n(CC(C)(C)O)n(-c5ccccc5)c4=O)nc3)ccnc2c1,Potency,MKL-2,inactive
same,Potency,CAOV3,inactive
COc1ccccc1N1CCN(CC(O)COc2cccc3ccccc23)CC1 (stereo not given),Potency,MKL-2,"inconclusive: 16.8 µM [inhibitor, partial curve]"
same,Potency,CAOV3,active: 12.6 µM
same,Potency,CASKI,active: 14.1 µM
same,Potency,Es-2,active: 25.1 µM
same,Potency,HeLa,"inconclusive: 35.5 µM [cytotoxic, single point]"
CN(C)Cc1ccc(-c2nc3cccc4c3n2CCNC4=O)cc1,Potency,MKL-2,"inconclusive: 18.7 µM [inhibitor, partial curve, poor fit]"
same,Potency,Es-2,"inconclusive: 39.8 µM [cytotoxic, single point]"
CC(C)(C)c1cc(C(=O)O)c(NC(=O)Nc2ccc3[nH]ncc3c2)s1,Potency,MKL-2,inactive
same,Potency,CASKI,"inconclusive: 3.98 µM [rising, full curve]"
NC(=O)c1cccc(-c2cc(Nc3ccc(OC(F)(F)F)cc3)ncn2)c1,Potency,MKL-2,"inconclusive: 33.2 µM [inhibitor, single point]"
same,Potency,UISO,"inconclusive: 14.8 µM [inhibitor, partial curve]"
same,Potency,WaGa,"inconclusive: 18.7 µM [inhibitor, partial curve, poor fit]"
CC1(C)CCC(C)(C)c2cc(NC(=O)c3ccc(C(=O)O)cc3)ccc21,Potency,MKL-2,"inconclusive: 2.99 µM [inhibitor, partial curve] and inconclusive: 16.6 µM [inhibitor, partial curve]"
same,Potency,WaGa,"inconclusive: 13.3 µM [inhibitor, partial curve]"
CCOC(=O)C(C)(C)Oc1ccc(Cl)cc1,Potency,MKL-2,"inconclusive: 23.5 µM [inhibitor, single point] and inactive"
same,Potency,WaGa,"inconclusive: 23.5 µM [inhibitor, single point]"
CN(C)CCOC(c1ccccc1)c1ccccc1,Potency,MKL-2,inactive
same,Potency,UISO,"inconclusive: 23.5 µM [inhibitor, single point]"
same,Potency,CASKI,inactive
CC[C@@H]1C=C(C)C[C@H](C)C[C@H](OC)[C@H]2O[C@@](O)(C(=O)C(=O)N3CCCC[C@@H]3C(=O)O[C@H](C(C)=C[C@@H]3CC[C@H](Cl)[C@H](OC)C3)[C@H](C)[C@@H](O)CC1=O)[C@H](C)C[C@H]2OC,Potency,MKL-2,"inconclusive: 20.9 µM [inhibitor, single point]"
same,Potency,WaGa,"inconclusive: 26.4 µM [inhibitor, single point]"
CN1CCC(=C2c3ccccc3CC(=O)c3sccc32)CC1,Potency,MKL-2,"inconclusive: 29.6 µM [inhibitor, single point]"
same,Potency,WaGa,"inconclusive: 18.7 µM [inhibitor, partial curve] and active: 29.9 µM"
C=C1C(=O)OC2C=C(C)CCC=C(C)CCC12 (stereo not given),Potency,MKL-2,"inconclusive: 37.2 µM [inhibitor, single point]"
same,Potency,WaGa,"inconclusive: 20.9 µM [inhibitor, partial curve]"
C[C@@H](CN1CC(=O)NC(=O)C1)N1CC(=O)NC(=O)C1,Potency,MKL-2,"inconclusive: 4.18 µM [inhibitor, full curve]"
same,Potency,UISO,"inconclusive: 2.35 µM [inhibitor, full curve]"
same,Potency,CASKI,inactive
same,Potency,HeLa,"inconclusive: 28.2 µM [cytotoxic, partial curve, poor fit]"
OC(CN1CCN(c2cccc(Cl)c2)CC1)C(c1ccccc1)c1ccccc1 (stereo not given),Potency,MKL-2,"inconclusive: 3.32 µM [inhibitor, full curve, poor fit]"
same,Potency,Es-2,"inconclusive: 8.91 µM [rising, single point]"
CC(C)C[C@@H](N)[C@H](O)C(=O)N[C@H](C(=O)N[C@H](C(=O)N[C@@H](CC(=O)O)C(=O)O)C(C)C)C(C)C,Potency,MKL-2,inactive
same,Potency,WaGa,inactive
NC(=O)c1ccc2nc(-c3ccc(Oc4ccc(Cl)cc4)cc3)[nH]c2c1,Potency,MKL-2,"inconclusive: 1.66 µM [inhibitor, partial curve, poor fit]"
same,Potency,UISO,"inconclusive: 26.4 µM [inhibitor, single point]"
same,Potency,WaGa,"inconclusive: 16.6 µM [inhibitor, partial curve]"
same,Potency,C33A,"inconclusive: 39.8 µM [cytotoxic, single point]"
same,Potency,CAOV3,"inconclusive: 35.5 µM [cytotoxic, single point]"
same,Potency,Es-2,"inconclusive: 20 µM [cytotoxic, partial curve]"
same,Potency,HeLa,"inconclusive: 20 µM [cytotoxic, partial curve, poor fit]"
CCn1cc(C(=O)O)c(=O)c2ccc(C)nc21,Potency,MKL-2,inactive
same,Potency,WaGa,inactive
CNC1CCC(N(Cc2cccc(-c3ccncc3)c2)C(=O)c2sc3c(F)ccc(F)c3c2Cl)CC1 (stereo not given),Potency,MKL-2,"inconclusive: 26.4 µM [inhibitor, single point]"
same,Potency,CAOV3,"inconclusive: 39.8 µM [cytotoxic, single point]"
same,Potency,Es-2,"inconclusive: 35.5 µM [cytotoxic, single point]"
CCC(=O)N[C@H]1CC[C@H](C(=O)N(C)c2ccc(-c3nc4ccccc4o3)cc2)C1,Potency,MKL-2,"inconclusive: 26.4 µM [inhibitor, single point]"
same,Potency,UISO,"inconclusive: 23.5 µM [inhibitor, single point]"
same,Potency,WaGa,"inconclusive: 26.4 µM [inhibitor, single point]"
COc1cc(C(C)=O)ccc1OCCCN1CCC(c2noc3cc(F)ccc23)CC1,Potency,MKL-2,"inconclusive: 9.35 µM [inhibitor, single point] and inconclusive: 26.6 µM [inhibitor, single point]"
same,Potency,WaGa,"inconclusive: 21.1 µM [inhibitor, single point]"
OCCN(CCO)c1nc(N2CCCCC2)c2nc(N(CCO)CCO)nc(N3CCCCC3)c2n1,Potency,MKL-2,"inconclusive: 23.5 µM [inhibitor, single point] and inconclusive: 21.1 µM [inhibitor, partial curve, poor fit]"
same,Potency,UISO,"inconclusive: 26.6 µM [inhibitor, partial curve, poor fit]"
same,Potency,WaGa,"inconclusive: 33.5 µM [inhibitor, single point]"
same,Potency,HeLa,"inconclusive: 31.6 µM [cytotoxic, partial curve, poor fit]"
O=C1c2ccccc2-c2n[nH]c3cccc1c23,Potency,MKL-2,"inconclusive: 3.32 µM [inhibitor, partial curve, poor fit]"
same,Potency,WaGa,active: 2.64 µM
CC1(C)Cc2c(-c3ccccc3)c(-c3ccc(Cl)cc3)c(CC(=O)O)n2C1,Potency,MKL-2,inactive
same,Potency,UISO,inactive
same,Potency,CAOV3,inactive
Cc1nc(Nc2n[nH]c3c2CN(C(=O)N[C@H](CN(C)C)c2ccccc2)C3(C)C)c2sccc2n1,Potency,CAOV3,"inconclusive: 7.94 µM [cytotoxic, full curve, poor fit]"
same,Potency,CASKI,active: 7.94 µM
same,Potency,Es-2,active: 8.91 µM
same,Potency,HeLa,active: 8.91 µM
NS(=O)(=O)c1ccc(Nc2nc(OCC3CCCCC3)c3[nH]cnc3n2)cc1,Potency,CAOV3,"inconclusive: 35.5 µM [cytotoxic, single point]"
Cc1cn2c(-c3cn[nH]c3)cnc2c(Nc2ccc(C(=O)N3CCNCC3)cc2F)n1,Potency,UISO,"inconclusive: 14.8 µM [inhibitor, partial curve]"
same,Potency,CAOV3,"inconclusive: 22.4 µM [cytotoxic, single point]"
same,Potency,CASKI,inactive
same,Potency,HeLa,"inconclusive: 31.6 µM [cytotoxic, single point]"
